Assay results: ChEMBL document CHEMBL4888484, “Replenishing the malaria drug discovery pipeline: Screening and hit evaluation of the MMV Hit Generation Library 1 (HGL1) against asexual blood stage Plasmodium falciparum ,using a nano luciferase reporter read-out” (2022)
Screen size: about 150,000 compounds; about 540 (0.36%) showed an effect of 50% or more. This is one part of the list.

test system: Plasmodium falciparum; assay: Primary screen in NF54 nanoGlo assay, in single point, at 2uM, 72h; a lower Z score goes with more inhibition; assay type: functional, Erythrocyte; details: timepoint 72 hour

SMILES | % Inhibition | Z score
CO[C@@H]1CC[C@@]2(OC)CCN(C(=O)c3cccc(-c4nc[nH]n4)c3)[C@H]2C1 | 3% | -0.37
CNC(=O)c1ccc(N2CC3CC=CCC3C2)nn1 (stereo not drawn) | 12% | -1.37
CS(=O)(=O)N1CCC[C@H](CN2CCN(c3ccccc3F)CC2)C1 | -18% | 2.12
O=C(c1oc2ccccc2c1Cn1cccn1)N1CC(CF)C1 | 31% | -3
CCOc1ccc(C(=O)N2C[C@H]3COCC[C@@]3(O)[C@@H]3COCC[C@@H]32)cc1 | -24% | 2.39
COCCCCC(=O)N1CC(C)N(C(=O)OC(C)(C)C)C(C)C1 (stereo not drawn) | 2% | -0.29
Cn1c(=O)c(-c2noc(C(=O)NCCN3CCOCC3)n2)nn(-c2ccccc2)c1=O | 1% | -0.26
Cn1cccc1[C@@H]1CCCN1Cc1cc(=O)n(C)c(=O)n1C | -12% | 1.57
Cc1cc(Cl)cc(Cl)c1CNC(=O)c1cncn1-c1cccc(-c2cccc(OC(F)(F)F)c2)c1 | 2% | -0.23
O=S(=O)(NCC[C@H](O)c1ccco1)C1CC1 | -19% | 2.77
CC(=O)c1cn(C[C@H]2CCOC2)c(=O)n(C)c1=O | -12% | 1.32
CC1CCN(C(=O)Nc2ccc3snnc3c2)CC1 | -42% | 4.98
Cn1ncn(CC(=O)Nc2ccccc2Cl)c1=O | -12% | 2.41
Cc1nc(CCC(=O)N2CC[C@H](CC(C)C)C2)n[nH]1 | -3% | 0.36
CCC(=O)N(CC(=O)N(Cc1ccc(F)cc1)Cc1ccc(C)s1)[C@@H](C)CC | -2% | 0.24
CN(Cc1noc(-c2ccccc2)n1)C[C@H]1CCS(=O)(=O)C1 | -3% | 0.43
O=C([C@@H]1CN(S(=O)(=O)c2ccccc2Cl)CCO1)N1CCC(c2nc3cc(Cl)ccc3s2)CC1 | -4% | 0.66
C[C@H]1CN(CC(=O)Nc2ccc(Cl)cc2Cl)Cc2c[nH]nc21 | -7% | 0.72
CC(C)(C)n1cc(CN2CC(=O)Nc3ccccc3C2)nn1 | 21% | -2.41
CC[C@H](C)N(C)S(=O)(=O)c1ccc(OCC(F)(F)F)nc1 | -13% | 1.47
CC(C)Cn1ncc2[nH]c(-c3cccs3)nc21 | -3% | 0.39

SMILES | % Inhibition | Z score
CO[C@@](F)(C(=O)Nc1ccccc1C(=O)O)C(F)(F)F | -7% | 0.96
Cn1cnc2c1CCN(Cc1coc(-c3ccccc3)n1)C2 | -14% | 1.29
CC(=O)c1ccc(F)cc1NS(=O)(=O)N(C)C | -8% | 0.95
c1cc2occc2c(N2CCC(C3OCCO3)CC2)n1 | 26% | -2.96
CN(Cc1cc(-c2ccccn2)no1)S(=O)(=O)c1cn(C)c(=O)n(C)c1=O | -13% | 2.52
O=S(=O)(Nc1nc2n(n1)CCCC2)c1ccsc1 | 7% | -1.26
O=C(NCc1ccc2c(c1)OCO2)c1nn[nH]c1Nc1cccc(F)c1 | -20% | 2.23
Cc1nn(CC(F)F)cc1-c1nc([C@H]2CCc3ccccc32)no1 | 3% | -0.67
Cc1ccc(-c2cn(CC(=O)N(C)c3ccccc3)nc2N2CCOCC2)cc1 | -11% | 1.3
CNC(=O)NC(=O)CCN(C[C@H](O)c1ccccc1)CC(C)(C)C | -4% | 0.79
COc1ccc(C2(NCc3cnn(CC(F)F)c3)CCOCC2)cc1F | -13% | 1.67
C[C@@H](CNC(=O)CS(=O)(=O)C(C)(C)C)c1nc2ccccc2o1 | -16% | 2.16
Cc1cc(C)c(CN2CCC(n3nccc3NC(=O)[C@H]3CCOC3)CC2)cc1C | 0% | 0.01
NC(=NCCCOCc1ccco1)NC1CCCCC1 | -2% | 0.23
Cc1occc1CN(C)C(=O)Nc1nc(C2CCC2)cs1 | 0% | -0.02
Cc1ccc2nc(CN3CCN(C(=O)NC[C@H]4CCCO4)CC3)oc2c1 | -15% | 1.36
Cc1cnc(C(=O)N2CCN(Cc3ccccc3)[C@@H]3CS(=O)(=O)C[C@@H]32)cn1 | 1% | -0.16
O=C(c1ccc(-n2cnnn2)cc1)N1CCOc2ccc(CN3CCN(CCO)CC3)cc2C1 | -5% | 0.57
Cc1cc(C(=O)N2CCN(C3CCCCC3)CC2)c2c(C)nn(-c3cccc(Cl)c3C)c2n1 | -17% | 1.74
Cc1c(NC(=O)N[C@H]2[C@H](c3ccccc3)C2(C)C)nnn1C | 0% | 0.01
O=C1c2ccccc2N[C@H](c2cnc(C3CCC3)s2)N1CCO | -8% | 1.21

SMILES | % Inhibition | Z score
O=C(c1ccc2ncccc2c1)N1CCC(Cc2ccc(CO)cc2)CC1 | -2% | 0.41
OC[C@H]1Cc2ccccc2N1Cc1cscn1 | -11% | 1.48
C[C@H]1CN(C(=O)C2(C)CCCCC2)c2ccccc21 | -1% | 0.25
COc1cccc(F)c1-c1nc2c([nH]1)c(C)nn2[C@@H](C)C1CC1 | -8% | 1.14
c1ccc(CN(Cc2cc[nH]n2)c2nc(-c3cccnc3)nc3c2CCC3)cc1 | -11% | 1.62
CC(C)OCCCN1C(=O)CC[C@H]1c1c[nH]c2ccccc12 | -18% | 2.08
O=C(c1ccon1)N1CCCc2c(Br)cccc2C1 | -3% | 0.28
Cc1nn(C)c2nc(N3CCN(Cc4ccco4)CC3)sc12 | -15% | 2.27
O=C(Nc1csc(-c2ccncc2)n1)[C@H]1CCCOC1 | -6% | 0.96
Cc1cc(C)cc(Nc2cc(C(=O)Nc3ccccc3)ccn2)c1 | -5% | 0.69
CN1[C@@H](CO)C[C@@H](CNCc2cccn2-c2nccs2)[C@H]1c1ccccc1F | -8% | 1.23
COc1cc(OC2CC2)ccc1C(=O)N(C)CC1CCN(C)CC1 | 13% | -1.69
Cc1cncnc1C1CCN(C(=O)CC[C@H](C)N2CCOCC2)CC1 | 1% | -0.24
Cc1ccc(N2CCCC2)c(C(=O)N2CCCN(CC(N)=O)CC2)c1 | 2% | -0.43
O=C(NC1CCCCCCC1)c1cccc(-n2nnc3cccnc32)c1 | -11% | 2.24
COc1cccc(CNC(=O)c2cc(S(=O)(=O)N3CCCCCC3)cn2C)c1 | -14% | 1.78
C[C@@H](CCc1ccccc1)n1cnc2snnc2c1=O | 5% | -0.65
Cc1ccc(NS(=O)(=O)c2cc(-c3nnc(C(=O)N4CCCCC4)o3)sc2C)c(C)c1 | -11% | 1.64
CCOC(=O)c1cc(NC(=O)N(C)[C@@H](C)CC(=O)NC)ccc1Cl | -5% | 0.62
CCc1nnc(N2CCc3ccccc32)nc1CC | -5% | 0.97
CC(C)OCCCNC(=O)[C@H]1CCCN(c2nc3ncccc3n3cccc23)C1 | -13% | 1.46

SMILES | % Inhibition | Z score
COCCN(CCOC)c1cc(C#N)cc(C)n1 | -2% | 0.19
Cc1ncc2c(n1)CCN(Cc1coc(-c3ccccc3)n1)C2 | -5% | 0.95
O=C(CCn1nc2ccccn2c1=O)Nc1cccnc1O | -1% | 0.14
CC(C)n1ccnc1CNC(=O)c1ccc2c(c1)OCCO2 | 0% | 0.05
COCC(=O)N1C[C@@H]2CCN(Cc3cccc(C#N)c3)C[C@]2(CO)C1 | 1% | -0.09
CCc1nnsc1C(=O)NCCCOCC(C)C | -11% | 1.33
O=C(Nc1ccc2nscc2c1)[C@@H]1CCCCO1 | 0% | 0
Cc1cc(-c2ccc(C(=O)N3CCC[C@H](C(=O)N4CCCC4)C3)cc2)ccn1 | -7% | 1.24
CCn1nc(C)c(CNc2cnc3c(c2)c(NC(=O)[C@@H]2CCCO2)c(C(=O)OC)n3CCc2ccccc2)c1C | 24% | -3.17
O=c1c2ccccc2nc(-c2cccc(F)c2)n1Cc1ccc(Cl)cc1 | -17% | 1.57
CCCNC(=O)N1CCC(c2nnc(CN3CCCCCC3)n2C)CC1 | 0% | -0.07
COc1ccc(C(=O)N[C@H](C(=O)NC(C)C)C2CCN(C(=O)c3ccccc3F)CC2)cc1 | -15% | 2.14
C[C@H](C(=O)N[C@H]1CC[C@H](NC(=O)C2CCCc3[nH]cnc32)CC1)c1ccccc1 (stereo partly drawn) | 0% | 0.06
COc1ccccc1CCNC(=O)Cn1c2ccccc2c2cnn(C)c(=O)c21 | 17% | -1.75
Cn1cc(CNc2ccccc2CN2C(=O)CCC2=O)cn1 | 10% | -1.29
CC(C)Cc1nc(CN2CCc3nocc3C2)no1 | -6% | 1.24
CCOc1ccc(CN=C(N(C)C)N(C)C)cc1F | 7% | -1.36
O=C(Nc1ccc(Cl)cc1)[C@H]1CCCC[C@H]1C(=O)NCCCn1ccnn1 | 5% | -0.92
CC[C@@H](C(=O)Nc1cc(C)cc(C)c1)N1C(=O)CCn2nc(C)cc21 | -2% | 0.22
COc1cc(CN(C)c2ncccn2)sn1 | -13% | 1.36
O=C(c1nccc2ccsc12)N1CCC[C@H](c2nc3ccc(F)cc3o2)C1 | -21% | 1.83
